The values below come from PubChem BioAssay AID1508624 (National Center for Advancing Translational Sciences (NCATS), 2021).

SMILES strings stand for the structures. Among all 48,000 compounds or so, about 120 (0.25%) were called active. Roughly 4% stayed inconclusive and do not appear here. Calls come from the whole dose curve; as a rule, active = well fitted activation curve with a large enough effect; inconclusive = small, poorly fitted or top-dose-only effect, or another doubt; inactive = no such curve, though single readings can be large or run the other way. Some of the results follow.
Potency is the fitted concentration of half-maximal effect.

The nature of the experiment: Primary qHTS for Identification of Small Molecule Activators of Huntingtin-Antisense Promoter Activity. Note: nearly all actives have a fitted effect of over 55% in size. As to conditions: HEK293 HTT-AS promoter firefly luciferase reporter, 24 h; series mostly up to 57.5 µM; activity change, positive = activation: at the top concentration. The essentials:
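Firefly luciferase signal from promoter-reporter HEK293 cells was scaled between vehicle (0%) and zero RLU (-100%). Compounds were tested at final concentrations of up to 57.5 uM over 24 h at 37 degrees C. PTC124 at 50 uM final served as control inhibitor.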
Regarding `CN(C(=O)Cn1cc(S(=O)(=O)N2CCN(c3ccccc3F)CC2)c2ccccc2c1=O)c1ccc(Cl)cc1`, the “activity change, positive = activation” value was inactive: -6.61%.
The same measure, in the same setting: to `COCC(C)NC(=O)c1cnn2c(C(F)F)cc(-c3ccccc3)nc12` (stereo not given) belongs inactive: -3.59%; to `Clc1ccc2nsnc2c1NC1=NCCN1`, inactive: -20.7%.
On to `Cc1cc(C)c(NC(=O)CN2c3ccccc3S(=O)(=O)c3ccccc32)c(C)c1`, for which the “activity change, positive = activation” value was inactive: -28.4%.
The same measure, in the same setting: to `O=C(NCCCN1CCN(c2ccccc2F)CC1)c1cc2c(Cl)nc3ccccc3c2s1` belongs inactive: -12.2%; to `CCCCCOc1ccc(NC(=O)Cc2csc(C)n2)cc1`, inactive: -1.03%.
The same measure, in the same setting: with `O=C(Nc1sc2c(c1C(=O)Nc1ccc(Cl)cc1)CCCC2)c1cccs1` the figure was inactive: 8.53% [at 11.5 µM, percent change from vehicle, -100% = no light]; with `Cc1nnc(SCc2ccccc2Cl)c2cc3sccc3n12`, inactive: 13.7%.
The same measure, in the same setting: to `Cc1nc2c(C(=O)O)cnn2c(C)c1Cc1ccccc1` belongs inactive: -5.42%; to `Cc1ccccc1C(=O)Nc1nc2nc(C)c(C)c(=O)n2[nH]1`, inactive: -10.2%.
As for `CCCc1nn2c(=O)cc(COC(=O)c3ccc(NC(=O)CCc4ccccc4)cc3)nc2s1`, the “activity change, positive = activation” value was inactive: -15.9%.
Still for that read-out and setting: with `CC(=O)Nc1nnc(S(N)(=O)=O)s1` the figure was inactive: -7.19%.
Same read-out and setting: with `Cc1ccc(C(=O)CSc2ncc3c(n2)-c2ccccc2N(Cc2ccc(Cl)cc2)S3(=O)=O)cc1` the figure was inactive: -11.9%; with `CCCCOc1ccc(C(=O)Nc2ccc(F)cc2F)cc1`, inactive: -21.8%.
On the same count and under the same terms, with `CC(=O)Nc1c(I)cc(I)c(C(=O)O)c1I` the figure was inactive: -6.32%; with `CCCCOc1ccc(CNC(=O)c2ccc(-c3nc(CN4CCc5ccccc54)c(C)o3)cc2)cc1`, inactive: -23%; with `Cc1cc2cc3c(C)cc(=O)oc3c(C)c2o1`, “inactive”.
Consider `CCOC(=O)c1cnc2c(ccc3ccccc32)c1Nc1ccccc1OC`, for which the activity change, positive = activation was inactive: -10.4% [at 11.5 µM, percent change from vehicle, -100% = no light].
On the same count and under the same terms, with `Cc1ccc(S(=O)(=O)CCC(=O)Nc2ccc(Br)cc2C)cc1` the figure was inactive: -25.8%; with `COc1ccc(NC(=O)Cn2c(=O)cc(C)c3c(C)nn(-c4cccc(Cl)c4C)c32)cc1OC`, inactive: -9.81%.
On to `CC(C)Oc1ccc2c(=O)c(-c3ccccc3)coc2c1`, for which the Potency was active: 863 nM.
Take `O=C(NCCc1csc(-c2ccc(F)cc2)n1)c1cccs1`: the “activity change, positive = activation” value is inactive: -15.8%.
Still for that read-out and setting: with `O=C(NC1CC(=O)N(c2ccc3c(c2)OCCO3)C1)c1c(F)cccc1Cl` (stereo not given) the figure was inactive: -14.1%.
Same read-out and setting: with `CCOC(=O)c1cc(-c2ccccc2)n(CC(=O)NC2CCC(C)CC2)c1C` (stereo not given) the figure was inactive: -3.93%; with `COc1ccc(-c2noc(CSc3nnc(Cc4ccccc4)n3-c3ccccc3)n2)cc1OC`, inactive: -34.8%.
The same measure, in the same setting: to `Cc1ccc2c(c1)c(=O)c(C(=O)c1ccc3c(c1)OCO3)cn2Cc1cccc(F)c1` belongs inactive: -18.1%; to `COCCNc1oc(-c2ccc(COc3ccc(OC)cc3)o2)nc1C#N`, inactive: -20%; to `Cc1ccc(-c2nn(-c3ccc(F)cc3F)c3c2cnc2c(F)cccc23)cc1`, inactive: -14.6%.
For `Cc1ccc(NC(=O)CSc2nc3ccccc3c3nc(CCc4c(C)n[nH]c4C)nn23)c(C)c1`, the “activity change, positive = activation” value was inactive: -0.24%.
On the same count and under the same terms, to `NC1=N[C@@]2(c3cc(NC(=O)c4ccc(F)cn4)ccc3F)COC[C@@H]2CS1` belongs inactive: -26.7%.
The same measure, in the same setting: with `CCc1cccc(C)c1NC(=O)C1CCN(c2nn3c(=O)cc(C)nc3s2)CC1` the figure was inactive: -8.25%.
The same measure, in the same setting: with `COc1ccc(-c2cc(C(F)(F)F)nc(SCC(=O)N3CCCCC3C)n2)cc1OC` (stereo not given) the figure was inactive: -13.7%; with `Cc1ccc2oc(=O)c3cc(C(=O)Nc4ccccc4C(N)=O)sc3c2c1`, inactive: -8.15%.
In the case of `O=C1CCCc2cc(S(=O)(=O)NCC3CCC(C(=O)NCc4ccccc4Cl)CC3)ccc2N1` (stereo not given), the “activity change, positive = activation” value is inactive: -15.7%.
Same read-out and setting: to `COc1ccc(CCNC(=O)c2cc3c(s2)-c2ccccc2OC3)cc1OC` belongs inactive: -18.7%; to `Fc1ccc(N2CCN(c3ncnc4c3nc3n4CCCCC3)CC2)cc1`, inactive: -43.5%; to `COc1ccc(S(=O)(=O)c2c(O)c3ccc(C(=O)NCc4ccccc4)cc3[nH]c2=O)cc1`, inactive: -14.9%.
As to `CCOC(=O)c1cnc2c(ccc3ccccc32)c1Nc1ccc(OCC)cc1`, the “activity change, positive = activation” value was inactive: -4.34%.
`CCOCCCn1c(=N)c(C(=O)NCc2cccnc2)cc2c(=O)n3cc(C)ccc3nc21`: the “activity change, positive = activation” value is inactive: 1.92%.
Still for that read-out and setting: with `CCOc1ccc(Nc2cc(C)nc3nc(Cc4ccc(Cl)cc4)nn23)cc1` the figure was inactive: -23.2%; with `Cc1ccc(-n2nc3c(N4CCC(C(=O)NC(C)c5ccccc5)CC4)nnc(C)c3c2C)cc1` (stereo not given), inactive: -14.9%.
Still for that read-out and setting: with `COc1ccccc1N1CCN(C(=O)c2c(C)oc3ncn(CC(C)C)c(=O)c23)CC1` the figure was inactive: 5.41%; with `O=C(Cn1ccc2ccccc2c1=O)NCCC(=O)Nc1ccc(F)cc1F`, inactive: -3.59%; with `O=C(CCCl)NCCc1ccccc1`, inactive: 1.63%.
Still for that read-out and setting: to `CCOC(=O)c1cccc(NC(=O)c2cc(S(=O)(=O)N3CCCC(C)C3)cn2C)c1` (stereo not given) belongs inactive: -36.2%.
Take `CC1=C(C(N)=O)C(c2ccc(C)cc2)n2nc(SCc3ccccc3F)nc2N1` (stereo not given): the “activity change, positive = activation” value was inactive: -0.546%.
`CC(=O)Nc1ccccc1-c1nc2ccccc2n(CC(=O)c2ccc(Br)cc2)c1=O`: the “activity change, positive = activation” value is inactive: -18.2%.
The same measure, in the same setting: to `COc1cccc(CNC(=O)CSc2nnc(C)c3c(C)n(-c4ccccc4)nc23)c1OC` belongs inactive: -18.9%; to `CCOC(=O)C1CCCN(C(=O)Cn2ncc3c(C)n(Cc4ccccc4F)c(C)c3c2=O)C1` (stereo not given), inactive: -23%; to `NC1(Cc2ccc(Cl)cc2)CCN(c2ncnc3[nH]ccc23)CC1`, inactive: -36.2%.
Same read-out and setting: to `COC(=O)CNC(c1ccccc1)c1cc(Br)ccc1NC(=O)c1ccccc1` (stereo not given) belongs inactive: -14.3%.
On to `COc1cccc(-n2cc(C(=O)Nc3cc(OC)c(OC)c(OC)c3)c3ccccc3c2=O)c1`, for which the “activity change, positive = activation” value was inactive: -24.2%.
As to `CCCn1c(=O)c2c(nc3n2CCN3c2ccc(C)cc2)n(C)c1=O`, the “activity change, positive = activation” value is inactive: -1.71%.
The same measure, in the same setting: to `CC[C@@H](C)[C@@H](C(=O)Nc1ccc(C)cc1)N1Cc2ccccc2C1=O` belongs inactive: -23.2%; to `Cc1ccc(CN(C(=O)COc2ccc(Cl)cc2C)C2CCS(=O)(=O)C2)o1` (stereo not given), inactive: -20.4%.
The same measure, in the same setting: with `CC1=C(CO)C(=O)O[C@@H]([C@@H](C)[C@H]2CC[C@H]3[C@@H]4C[C@H]5O[C@]56[C@@H](O)C=CC(=O)[C@]6(C)[C@@H]4CC[C@]23C)C1` the figure was inactive: -94.8%; with `CSc1ccc(C2c3c(oc4cc(C)cc(C)c4c3=O)C(=O)N2CCO)cc1` (stereo not given), inactive: 6.52%; with `Cc1nc2sc(C(=O)N(C)c3ccccc3)c(NC(=O)c3ccccc3Cl)c2c(C)c1C`, inactive: -16.1%.
Still for that read-out and setting: with `COc1ccc(C2C(C(=O)Nc3ccccc3OC)=C(C)Nc3c(C(=O)Nc4ccccc4)cnn32)c(OC)c1` (stereo not given) the figure was inactive: -6.91%; with `CCN(CC)C(=O)C1CN2CCc3cc(OC)c(OC)cc3C2CC1OC(C)=O` (stereo not given), inactive: -3.89%; with `Cc1ccc(OCC(=O)N(Cc2ccco2)Cc2ccco2)cc1C`, inactive: -32.7%.
For the compound `CC(C)CCNC(=O)CCn1c(=O)c2cccn2c2cccnc21`, the “activity change, positive = activation” value was inactive: -4.26%.
`COc1cn(CC(=O)Nc2ccccc2)c(CN2CCCCC2)cc1=O`: the “activity change, positive = activation” value is inactive: -9.43%.
Same read-out and setting: with `CCN(CC)Cc1c(NC(=O)c2ccc(OC)cc2)sc2c1CCCC2` the figure was inactive: 22.9%; with `COc1ccc(CCNC(=O)Cn2c(=O)c3cccn3c3ccc(F)cc32)c(OC)c1`, inactive: -7.51%.
On the same count and under the same terms, to `CC(=O)Nc1ccc(Nc2nc3c(S(=O)(=O)c4cccc(Cl)c4)nnn3c3ccsc23)cc1` belongs inactive: -10.8%; to `Cc1ccc(C)c(-c2nnc(NC(=O)c3ccc4c(c3)OCCO4)o2)c1`, inactive: -14.4%.
The same measure, in the same setting: to `Cc1oc2ncn(CC(C)C)c(=O)c2c1C(=O)NCCCN1CCC(C)CC1` belongs inactive: 12.9%.
Take `O=C(COc1ccccc1F)OCc1cc(=O)n2nc(C3CC3)sc2n1`: the “activity change, positive = activation” value was inactive: -11.7%.
The same measure, in the same setting: to `COc1ccc(-c2cc(C(=O)Oc3cccc(C)c3)c3cc(C)ccc3n2)cc1` belongs inactive: -9.5%; to `Cc1ccc(NC(=O)CN2C(=O)CCc3cc(S(=O)(=O)N4CCCCC4)ccc32)cc1C`, inactive: -12.7%; to `COc1cccc(C(=O)Nc2ccc(-n3nncc3-c3ccccc3)cc2)c1`, inactive: -3.16%.
Take `Cc1cc(C)cc(-n2c(C)nc3cc(C(=O)NCc4ccccc4Cl)ccc32)c1`: the “activity change, positive = activation” value was inactive: -11.7%.
Still for that read-out and setting: with `Cc1cccc(C(=O)Nc2ccc(OCc3cc(=O)n4ccsc4n3)cc2)c1` the figure was inactive: -1.04%; with `CCN(CC)S(=O)(=O)c1ccc2c(c1)N(CC(=O)N1CCN(c3ccc(Cl)cc3)CC1)C(=O)CO2`, inactive: -9.6%; with `O=C(NC1CCCCCC1)C1c2ccccc2C(=O)N1Cc1ccccc1Cl` (stereo not given), inactive: -5.97%.
The same measure, in the same setting: to `O=C(O)[C@@H]1[C@H]2C[C@H]3c4[nH]c5ccccc5c4CCN3C[C@@H]2CC[C@@H]1O` belongs inactive: -3.65%.
Same read-out and setting: to `O=C(Cn1ccc2cc(S(=O)(=O)N3CCCCCC3)ccc21)NCCc1ccc(Cl)cc1` belongs inactive: -44.4%; to `CCN1CCN(C(=O)c2ccc3c(c2)N(Cc2ccccc2F)C(=O)c2ccccc2S3=O)CC1` (stereo not given), inactive: -9.85%; to `Cc1ccc(-n2c3c(cc(C(=O)Nc4cccc(Cl)c4)c2=O)C(=O)CC(C)(C)C3)cc1`, inactive: -3.21%.
Take `Cc1ccc(Cl)cc1N1CCN(C(=O)CCCCCn2c(=O)[nH]c3ccccc3c2=O)CC1`: the “activity change, positive = activation” value is inactive: -2.22%.
On the same count and under the same terms, with `CCOc1ccccc1-c1nc(SCC(=O)c2ccc(OC)c(Br)c2)n[nH]1` the figure was inactive: -9.08%.
As for `CCc1ccc(NC(=O)C2CCCN(S(=O)(=O)c3c(C)noc3/C=C/N(C)C)C2)cc1` (stereo not given), the “activity change, positive = activation” value was inactive: -21.9%.
As to `CC(C)OC(=O)c1cccnc1SCC(=O)Nc1ccc(C(F)(F)F)cc1Cl`, the “activity change, positive = activation” value was inactive: 10.8%.
On the same count and under the same terms, with `CC(=O)c1cccc(NC(=O)C(C)n2c(=O)cc(-c3ccccc3)c3c(C)nn(C)c32)c1` (stereo not given) the figure was inactive: -7.59%; with `COc1cccc(CNC(=O)c2ccc(NC(=O)N3CCCCc4ccccc43)cc2)c1OC`, inactive: -6.15%.
Still for that read-out and setting: to `CCOc1ccc(-c2cc(-c3nc(-c4ccc(C)cc4)no3)[nH]n2)cc1` belongs inactive: -0.986%; to `CCN1C(=O)c2ccccc2S(=O)(=O)c2ccc(C(=O)NCc3ccccc3Cl)cc21`, inactive: -19%; to `O=C(O)CCCCCC(=O)NN=C1CCCC1`, inactive: -8.69%.
Consider `COC(=O)CSc1ncc2c(n1)-c1ccccc1N(Cc1cccc(F)c1)S2(=O)=O`, for which the “activity change, positive = activation” value is inactive: 19.6%.
The same measure, in the same setting: to `CCOC(=O)C1CCN(C(=O)CSc2n[nH]c(-c3ccc(F)cc3)n2)CC1` belongs inactive: -13%.
`COc1cccc(CNC(=O)c2c(C)oc3nc(C)nc(N4CCOCC4)c23)c1`: the “activity change, positive = activation” value was inactive: 3.12%.
Still for that read-out and setting: with `O=C(Cn1c(=O)oc2cc(S(=O)(=O)N3CCCC3)ccc21)NCc1ccc(F)cc1` the figure was inactive: -30.9%; with `CCc1cccc(C)c1NS(=O)(=O)c1c(C)nc2sccn2c1=O`, inactive: -11.3%.
Still for that read-out and setting: with `CC1(C)[C@H]2CC[C@]3(C)[C@@H](C(=O)C=C4[C@@H]5C[C@@](C)(C(=O)O)CC[C@]5(C)CC[C@]43C)[C@@]2(C)CC[C@@H]1O` the figure was inactive: -7.39%.
